# Hit rate of the full screen: of about 420,000 compounds, about 50,000 (12%) were called active. Inconclusive means that the source gave no clear call. Such entries were picked first, then a sample of the others. Calls come from the whole dose curve; as a rule, active = well fitted inhibition curve with a large enough effect; inconclusive = small, poorly fitted or top-dose-only effect; inactive = flat fitted curve, though single readings scatter. No potency is given beside an inconclusive call; the fits are too rough.
# Test: qHTS for Inhibitors of human tyrosyl-DNA phosphodiesterase 1 (TDP1): qHTS in cells in presence of CPT; note: nearly all actives have a fitted effect of over 55% in size
# Details: chicken DT40 Tdp1-/-;hTDP1 cells + 20 nM CPT, ATP luminescence, 48 h; activity change, negative = growth inhibition: at 46.2 µM (top of the series) unless noted
# Outline: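 Chicken DT40 Tdp1-/- cells stably complemented with human TDP1 were seeded at 400 cells/well in medium containing 20 nM camptothecin, exposed to pin-transferred compounds, and grown at 37 °C for at least 48 hr. Viability was read as ATP luminescence.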
# % is set by controls: 0 for no effect and ±100 for the full control effect; potency is the fitted concentration of half-maximal effect; tags give direction and shape of the fitted curve.
Compound,Potency,"activity change, negative = growth inhibition"
O=C(CCNS(=O)(=O)c1ccc(OC(F)(F)F)cc1)N1CCN(C/C=C/c2ccccc2)CC1,"inconclusive [inhibitor, single point]",
CN(C)S(=O)(=O)c1ccc(N2CCCC2)c(C(=O)Nc2ccccc2OC(F)F)c1,"inconclusive [inhibitor, single point]",
CCc1nn(CC(=O)NCCCN2CCN(C)CC2)c(=O)c2cc3sccc3n12,,inactive: -11.3%
CCOc1ccc(NC(=O)CS(=O)CC(=O)Nc2cccnc2)cc1 (centres undefined),,inactive: 13.5%
Cn1c(CN2CCOCC2)nc2cc(NC(=O)COc3ccccc3)ccc21,"inconclusive [inhibitor, partial curve, poor fit]",
Cc1ccc(-c2[nH]ncc2CNCc2ccc(CN(C)C)cc2)cc1,active: 12.6 µM,
c1ccc(Cn2c(CN3CCCC3)nc3ccccc32)cc1,"inconclusive [inhibitor, single point]",
O=C(CCCCn1c(=O)c2ccccc2n(CC(=O)Nc2cccc(F)c2)c1=O)NCc1ccco1,,inactive: -17.4%
COc1cc(Br)cc(/C=N/N(CCO)C2=NS(=O)(=O)c3ccccc32)c1OC,"inconclusive [inhibitor, single point]",
C=CCn1c(SCC(=O)N2CCOCC2)nnc1C(C)NC(=O)c1ccccc1 (centres undefined),,inactive: 0.852%
COc1ccccc1-c1nc2c(c(SCC(=O)Nc3ccccc3F)n1)Cc1c(CO)cnc(C)c1O2,"inconclusive [inhibitor, partial curve]",
CCc1ccc(-c2cc3c(=O)n(CC(=O)NCCCN4CCC(Cc5ccccc5)CC4)nc(C)n3n2)cc1,"inconclusive [inhibitor, partial curve]",
COc1ccc(NS(=O)(=O)c2cccc(NC(=O)COc3ccccc3[N+](=O)[O-])c2)cc1,"inconclusive [inhibitor, single point]",
Cc1ccc(C)c(S(=O)(=O)N2CCCOC2CNC(=O)C(=O)NCc2ccccn2)c1 (centres undefined),,inactive: -7.61%
COc1cccc(CN(C(=O)COc2ccccc2[N+](=O)[O-])C2CCS(=O)(=O)C2)c1 (centres undefined),"inconclusive [inhibitor, partial curve]",
CN=c1scc(C)n1/N=C/c1ccc(O)c(O)c1O,active: 16.4 µM,
COc1ccc(CN2C(=NC(=O)c3ccccc3)SC3CS(=O)(=O)CC32)cc1 (centres undefined),,inactive: -13.5%
Cc1ccc(NC(=O)CCn2cnc3ccccc3c2=O)cc1Cl,,inactive: -16.2%
COc1cc(/C=N/Nc2nc3ccccc3[nH]2)cc(Br)c1OCC(=O)N(C)C,"inconclusive [inhibitor, single point]",
CN(CC(=O)Nc1ccc(Cl)c(C(F)(F)F)c1)C(=O)c1cn2ccccc2n1,active: 13 µM,
Cc1ccc(C(C)C)c(OC(=O)/C=C/c2ccccc2)c1,"inconclusive [inhibitor, single point]",
COc1ccc(-c2cc(-c3ccccc3)c(C#N)c(SCC(O)CS(=O)(=O)Cc3ccccc3)n2)cc1 (centres undefined),"inconclusive [inhibitor, full curve, poor fit]",

Compound,Potency,"activity change, negative = growth inhibition"
Cc1ccc2[nH]c(C(=O)N/N=C/c3ccccc3O)c(C)c2c1,active: 4.61 µM,
CC(=O)Nc1ccc(S(=O)(=O)Nc2ccc(N3CCCCC3)cc2)cc1,active: 4.61 µM,
Cc1noc(C)c1S(=O)(=O)N1CCC(C(=O)NCCCN2CC(C)CC(C)C2)CC1 (centres undefined),"inconclusive [inhibitor, partial curve, poor fit]",
CCN1CCN(CCCNC(=O)Cn2c(-c3cccs3)cc3ccccc32)CC1,"inconclusive [inhibitor, single point]",
COc1ccc(N=Cc2cc3c(cc2O)OC(N)=C(C#N)C3c2ccccc2)cc1 (centres undefined),"inconclusive [inhibitor, single point]",
O=c1c(-c2cc(F)cc(F)c2)nc2cncnc2n1Cc1ccc(F)cc1,"inconclusive [inhibitor, full curve, poor fit]",
CC(=O)c1c(Nc2ccccc2)sc(C(=O)c2ccccc2)c1C,"inconclusive [inhibitor, single point]",
CCOC(=O)N1CCc2c(sc(NC(=O)Cc3ccccc3)c2C(=O)c2ccc(OC)cc2)C1,"inconclusive [inhibitor, single point]",
COc1ccc(C2CC(c3cccs3)=NN2C(=O)CCl)cc1OC (centres undefined),active: 2.59 µM,
Cc1cccc(NC(=O)c2ccccc2OCC(=O)N2CCOCC2)c1C,"inconclusive [inhibitor, single point]",
COc1ccccc1C(=O)NCCC(=O)N(C)Cc1cccnc1,,inactive: 0.238%
NC(=O)CCCc1nc(-c2ccccc2Cl)no1,,inactive: -3.2%
CCCCN(C(=O)C1CCN(C(=O)c2ccccc2C)CC1)c1c(N)n(CCC)c(=O)[nH]c1=O,"inconclusive [inhibitor, partial curve]",
CC(=O)NC(O)C(=O)c1ccccc1 (centres undefined),"inconclusive [inhibitor, single point]",
COc1ccc(Nc2c3c(nc4ccccc24)CCC3)c(OC)c1,active: 14.6 µM,
COc1ccc(-c2noc(C3CCCN(C(=O)c4ccccc4)C3)n2)cc1 (centres undefined),"inconclusive [inhibitor, single point]",
COc1ccc(NC(=O)C2CCCN(C(=O)c3cnn(-c4ccccc4)c3-n3cccc3)C2)cc1 (centres undefined),"inconclusive [inhibitor, single point]",
CC(=O)c1ccc(N2CCN(C(=O)COc3ccccc3F)CC2)c(F)c1,"inconclusive [inhibitor, single point]",
CC(O)CNC(=O)C(=O)Nc1c2c(nn1-c1ccc(Cl)cc1)CSC2 (centres undefined),,inactive: 0.051%
O=C(CN1CCOCC1)Nc1ccccc1F,,inactive: -3.02%
CCCCn1c(SCc2ccccn2)nc2c1c(=O)n(C)c(=O)n2C,"inconclusive [inhibitor, partial curve]",
CCN1CCN(S(=O)(=O)c2ccc(Cl)c(C(=O)N(C)Cc3ccc(Cl)cc3Cl)c2)CC1,"inconclusive [inhibitor, single point]",

# From PubChem BioAssay AID686979 (National Center for Advancing Translational Sciences (NCATS), 2013)
